Experimental data: PMC10726135
Some of the results follow. At the low end of the ranking, values are background and their order means little. Measured with an extract: partners may take part in the binding.

Target: T1, HNF4alpha8 (COS-7 nuclear extract) (UniProt P41235-5)
T1 sequence: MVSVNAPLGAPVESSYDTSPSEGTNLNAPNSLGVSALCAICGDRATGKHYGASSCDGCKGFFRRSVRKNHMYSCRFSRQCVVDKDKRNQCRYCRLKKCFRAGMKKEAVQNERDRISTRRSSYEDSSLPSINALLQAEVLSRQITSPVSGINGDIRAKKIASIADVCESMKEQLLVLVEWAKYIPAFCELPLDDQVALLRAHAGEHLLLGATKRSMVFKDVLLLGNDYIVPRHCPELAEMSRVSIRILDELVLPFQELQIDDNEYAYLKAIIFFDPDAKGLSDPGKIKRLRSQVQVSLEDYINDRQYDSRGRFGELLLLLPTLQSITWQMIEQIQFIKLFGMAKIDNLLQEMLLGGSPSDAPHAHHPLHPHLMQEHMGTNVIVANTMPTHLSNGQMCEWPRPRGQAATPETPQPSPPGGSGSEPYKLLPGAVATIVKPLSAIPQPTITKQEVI
Test: protein-binding microarray
Conditions: COS-7 nuclear extract on double-stranded Agilent 4x180k PBM; binding buffer, salt, pH and temperature not given; high values mean tight binding; double strand, one strand shown; sequences stand for … in …GCCTAGGGAGATTAGAGTATCGGTCGA

Sequence	binding signal (log2 normalized intensity)
GACTTGAAGCCAGACTCTGCCATTTCCCAG	-1.36
CCAGGGACTTACTCAACTAGCTCCATGTGA	-1.31
GATGCATGATTGCTCTCTACTTGGTGGGAG	0.236
AAAAACATGGGTCTCTTCCTCAGTTTGTTC	1.54
GCTAGCATTGCTCAGACAGGGCAAAGGTGC	3.57
CTAAGAGCCGCAGAGCTAATGTTCAAATCC	-1.27
GCTTTGGACTTTGGGCTGTGTTTTGCCCCT	5.58
ATAAGACACATTCCATGCTTATCAGTGTAC	0.903
CTCAAAGGAGGTCAGAACTGTGGACTCGCT	1.89
CTTGTTTGTCAAGTTTGGTAAGCAGACCCC	2.66
GGGTCCACATTCCAGGAATATTCAGATATT	-0.229
ATTCCCTTTCTCCTCCCCTCCCCTCCCCCC	6.78
CGACTTGCCTTGTGTACTCTATCCAGTAGA	1.14
GGCCAGCGCCAGGCTGGGGGCAGAGTTCAC	5.83
GACCTCCTGTCTCATCCTGTGACCAAGAAT	0.429
CTCAGTCATACCACATGGATGGATTCAGAT	0.256
GGCCCAGGAAGCTCCAGCGGGGTTTGAATC	-1.32
TCTTCCATCGGACTTTGATCTGCCACATAC	6.72
GTGTTTGTCCTTTGTTGCAATGCTGGAACA	1.28
TGCTGGAATGAGGGAGGCAGCCACCTAGGC	-1.31
AAGCTCTGGAGTCCAAAGGTCAGCAAGCCT	8.14
AATGTATGGGCTATTTATGACGGTGTATGC	0.766
TCAAAGCATTCCACATTCTCCACTGGGAAG	-1.34
TCTGCAGTTCTGGGCCAAAGGTCATACCTG	6.41
CTACATTCAAATCCTTGCTCTGTGGTTTAG	0.965

Sequence	binding signal (log2 normalized intensity)
AGGCCTATGGCGAAAAAGGAAATATCTTCC	-1.19
CCACTGACAGGAGGTATGCCAGGAATGCTG	-1.35
TTGTTTCATTGCACAGTTACTCCACAACTT	-0.186
TGTGCAGCTTTGTGTAAAACTTCAAAGAAG	0.796
GCACAGTTACTCCACAACTTGTTCTATTGT	0.623
TGAGGCAAAATTCCTCGCTAGCTGTCAATC	-1.42
TCAGAGCTTGAAAAGTCTTTCTGCCAAAGT	0.513
CCGGTTCCTCTGGATACCCTTCCCCCCAAG	4.89
TTTGGCTCTAGAGGAGTCCCCTTAAAATTC	0.535
CTGAGGTGGAAGGATCACCTGAGTCCAGAG	0.477
ATGTCTAACCTCCTGGGAATGCAGTCCAGT	0.93
CTTTAGAGAAACGCACTCGCCTCTCCTGTT	-0.995
TAGATAAACTACTTTATATTCCTTTGTATC	1.35
TTATATCCCCTGCCTGGGTCCTGGGAGCAA	0.574
GGTATGTATGGAATGTCACTTTCTGACAGG	1.19
CAGAAAGTCCGGGGGCCAGTTCACTCAGTC	-1.17
TGGGTGGAAGGAAAAGAGGAAAACCAGCTC	-1.39
ATAAGGCTGCCTCCTATCCTCTGATCCCCA	2.37
TTTACAGGACATAGTCCTCTGCATATTTCT	0.407
GATCAAGAGGAAGATCTTTTTGATGACTTT	0.895
CAGAGTCCAGAGGTCACTTTGCTGCCTTTT	5.34
CAGGGAAGAGCCGGCCGGCGGGGTCACGTG	3.97
AAACCACACACTCCATAACTTTGGGACACT	-1.3
GGCTCAGGCCGGTTGGCCAGGTTCCTCCAC	-1.18
AAAGATATCTCTGTGGATAGCTCAGGGATT	-0.846

Sequence	binding signal (log2 normalized intensity)
TGGATGGGGGAGGGGACTTCGCTGGAGGTG	-1.36
GCTCCCAGTGCACACAGACTTTTGTGTGGT	1.62
CTGCTTTTATGACCTTTGACTGCAGAAGAT	6.33
CCTGCCTACATCAAGAGGATTACATAACCA	-1.13
TGAGACATGAATCCATCCCACCTCACTTAT	1.12
TGGAATGCAAGACCTCAGCCCTCAGGGGCC	-1.32
ACCCACCCACCTATGTCCTTATCCTCATTG	0.831
TATGTTAGACCAGCCAATTCTACTGGAAGT	-0.175
TCTTCAGGAGGCACTGATAAGCGTATTTCA	-1.24
CCTGACCCCCAGTGGAATGTGCCCTTTGAC	5.75
CATAGATCCCACCATTCCCAGTTGTCTGAT	1.01
GTCCATGCTATTAAGCACTAGAAAGTCTTG	-0.893
GGTGGCTCCCCCAGGCGACTGGGCCAGGAG	1.18
ACAGCAACTGTAGTGCATAGTGGGTTTCGG	0.0987
GAAACATGCGATACTTGACCTGCAATGAAA	1.02
TTCCACCTTTGCCCTCCAAACTGAGAGATT	3.05
AAATGGAACAGTAAGTGTTAATGGCACTTC	0.431
AATGATAAGATATATGACTCTAGATTGTTT	0.836
AGGCTTTAGATAAGGTATGTGGGAGCGGGG	-1.23
TGCTTTGGGTGGATTTGGAGATCAGAGTCC	3.7
CCTATGTCTACGTCTTGTCTCTTTTGTCCA	1.96
GTTGCACTCACTAGCATTAGGACCTGTTTG	0.19
GAGAGCAAGGGGGAAGCTGCTAATTGCTTG	-1.33
CCCTACTGTACCCTATGCACCCCACAGTGC	2.43
GCTGTTACTCTAGTACTAGGCAGCATAGGG	-0.707

Sequence	binding signal (log2 normalized intensity)
AGCAGCATTGGACCCTCCCAGCCAAACCCC	4.31
TGAGAGCAGAGGCTGGGGCCCTCTTCCAGC	-1.33
TCTATCTGTATTCTGAAGCCCTACAGCCCA	-0.917
CAGTGTCAGGACCTTGCTCCTGTTCCTTTG	1.79
TATTGAACAAAGATTGCTTGCCAGTTCCCT	-1.25
ACTGGCCCAGCGGATTAATATCCAGAGGCT	-1.35
CATTGATAATTCAGTTTCATTGCACTTTGC	4.62
CTGGAACCATCAGGATTCCAGAGGAAGCAG	-1.01
TTTGTGATTACATTGAGTCCACTGAGATCA	1.91
ACTTAGGATCAGTAGCATTATCTCCTTGCT	-1.27
ACACTCAAGGCAAGAGAGTCATAAAGGGCA	0.0967
GTGCAATAACACCTATGTGCAAAATACCTG	-1.26
CCAGTCTAGGTCTGGAAGGAAGGAGGGAGG	-1.26
ATATCCTTTAGCTCCTGGGCCCAGATATAC	-0.705
TGCACTTTGCCCTCTCTTCAGCACCTTTTA	5.26
TTAGAGCTGGGGCACAATGCTGCAATTCTC	-1.28
GGTCAATATTTTCTTTGTGCTATTTTTGGC	1.9
GGCCCTCACGTGGCCCTGGCATTTGGCTCA	-1.29
TTCCCTCCTCTTCCCTACCCCCTGGGAGTA	4.1
TTAATGTGCTTGTCTGACTGCTGCCAAAGG	-0.967
CTGCGCATACCATATGCATTCCTGCCTCAG	-0.921
GGATCCCATTCATGTGGGTCAACAGACAAA	0.982
ATCTCATCCTGTGACCAAGAATGTCTAACC	-0.428
ATAAGAAAGCAAAGTCCAACACAGAAGCCT	2.56
GTAGAGGTGATTTCAGACTATTTTATTTTC	-1.02

Sequence	binding signal (log2 normalized intensity)
AGACATCGACCTTTGTGGGCTTCAGACATT	2.32
ATAACACAACCCCTACTGTACCCTATGCAC	2.93
AACTCTTTACACAGTTCTGATACATTGGAC	3.58
CCTATGAGTCTGTAAAGTCAAAAACCAGTT	0.646
GTCGCAGAAAACACAGAGATCTGATCAAAG	-1.21
TTCAAGGAATGCAGCTCAGACTGCTTCTCT	-1.3
AAGGTCAGGATCTCAGCCGCGCGGCTTCAG	-1.16
AGATAAACATGAAACAGTCACAGTTATCAG	-1.01
GAATGTGGGAAGCTGGCACAGCAGATGCTG	-1.35
ACTTTGATAGGCACAATCAGCAAACACAGA	-1.3
GCTGCTGAAACATTCAACTGACACTTGTTT	0.527
GCCTTATACAACCTCTGTAATAACTGCAGT	-0.127
TTAAATAGCTCATTAAGCTTAGCGTTATCA	-1.26
CCACCCCCTCTCCTCCCTCGGCCGGCCCGG	4.98
ACACAATATTGACATTCCAGCCTCCAGCTA	-1.31
TTAATAGAAGAAAGCCCTTTTTGGAATGTG	0.929
TGATCTTTACCCTGGAATGCTGTTAGCACT	0.831
CTTTGATCATATGCATTTCCCTAGATCACT	-0.807
AGGCCCCAACATTCCAGAGAAGCACATCCA	-1.28
ATCAAGGATTTTTTCTTGGACTTTGGTCAT	8.58
CTGGGGCCCCACTGGGGTGGAGATGCCGTC	-0.939
TCAGAAGTCCAACATTAGTATCACTGTGAA	1.16
GAGCAGCTGGTGGAGGCGGTGCCATTCACA	-1.36
CTGCTGTTGCACCTCTTATCAAGCGTGCAC	0.0901
GGGCCGGGAAACGCCCTCGGCGCGCACCCA	-1.37

Sequence	binding signal (log2 normalized intensity)
GCCTGTTTCCCTAGCTTATATCCCCTGCCT	2.44
ACCAGGGAAATTACCCTCTAATGGTATTCA	-0.865
AGGAATGCTATCTAGCATGACAAGAATACG	-1.09
AAGCTAAATACCCTCTTTAGGGTAGCCTGG	-0.00996
AGCCCTTATATCCACATGGGTCCAAAGTTC	9.47
ATGGCACAGAGGAGGGACGACTTACTTTTA	-1.31
TCAACTGTTGTGGACCACGTGGCTAGATTG	1.24
GCCCGAGCTGTGCGGTAGGCATTGAGGCAG	-1.36
TCTCCGCTGGCCTGTCTCCTGGCCTATTGT	1.17
AGTGACGTGCAGAGGAGCAACTCATTCACT	-1.16
AGAGATGTCAGCCCAAGATAACCTCCCCTC	4.29
CACCCTTCTATCCCCTTATCTAAATGGAGT	1.93
TAGAGTAACCATTCTTTCTGAGAAAAGCTG	-1.23
TGAATAAACAAATAATGGCTTTTGCCCTCA	4.15
TTTCTGTTTGTCTTACTGTGTTGTCGTATT	2.11
TTTTTTTTTTTTTAACGGTCTGCCCTCTTG	3.39
AATGGAGTTTGGTTTAAAGTTCAAGTCATA	2.74
CCATGCCACAGAATCGCCCCACCCTGCCTG	2.59
CTTCTGAGATGGAGCATGATGAAATTTCCT	-0.998
AACTTCTTGGCCTGCATAGCACTTTCATAA	-0.863
